Laboratory results: PubChem BioAssay AID602293 (National Center for Advancing Translational Sciences (NCATS), 2012)
Among all 1,300 compounds or so, about 30 (2%) were called active. Not shown: some 10% with an inconclusive outcome. Calls follow the shape of the dose curve; as a rule, active = well fitted inhibition curve with a large enough effect; inconclusive = small, poorly fitted or top-dose-only effect; inactive = flat fitted curve, though single readings scatter. This is one part of the list.

Assay: qHTS for antagonists of the Thyroid Stimulation Hormone Receptor: Hit Validation in HTRF Activity in a Luteinizing Hormone Receptor Cell Line
Conditions: LHR-expressing cell line, cAMP HTRF, antagonist mode; series mostly up to 58 µM; activity change, negative = inhibition: at the top concentration
Method in brief: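 Counter-screen on LH receptor–transfected HEK 293 cells: 30 min compound exposure at room temperature in medium containing 100 uM RO 20-1724 phosphodiesterase inhibitor. Cellular cAMP read by competitive HTRF after lysis with d2-cAMP and anti-cAMP antibody (330 nm excitation; 615/660 nm emission).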
% is scaled to controls: 0 for no effect and ±100 for the full control effect; potency is read from the fitted curve at half-maximal effect.

| Structure (SMILES) | activity change, negative = inhibition | Potency |
| --- | --- | --- |
| O=C(COc1ccccc1/C=C1\SC(=S)NC1=O)Nc1ccc(F)cc1 | inactive: 0.549% |  |
| O=C(COCc1cc(-c2cccs2)on1)NC1CCCCC1 | inactive: 1.06% |  |
| CCCn1c(COc2ccccc2OC)nc2ccccc21 | inactive: 2.43% |  |
| O=S(=O)(Nc1cccc(-c2ccc(N3CCCCCC3)nn2)c1)c1ccc(F)cc1 | inactive: 1.26% |  |
| O=C(NCCCN1CCOCC1)c1ccc2c(c1)N(Cc1ccc(Cl)cc1)C(=O)c1ccccc1S2=O (centres undefined) | inactive: -1% |  |
| CCOc1ccccc1-n1c(=S)sc2c(=O)n(-c3ccc(F)cc3)c(SCC(=O)O)nc21 | inactive: 2.46% |  |
| O=C(CN1C(=O)c2ccccc2S1(=O)=O)NCCSCc1cccc(Cl)c1 | inactive: 0.136% |  |
| O=C(c1cccc(Cl)c1)N1CCN(Cc2ccc3c(c2)OCO3)CC1 | inactive: -1.45% |  |
| CSCc1cc(N2CCOCC2)nc(SCc2ccc(Cl)cc2Cl)n1 | inactive: -2.04% |  |
| Cc1sc2ncn(CC(=O)NCCCC(=O)NCc3ccc(F)cc3)c(=O)c2c1C | inactive: 2.32% |  |
| Cc1ccc(Oc2cc(NC(=O)CCCn3nc([N+](=O)[O-])cc3C)cc([N+](=O)[O-])c2)cc1 | inactive: -1.1% |  |
| CCCc1nnc(NC(=O)c2nc(S(=O)(=O)Cc3ccc(C)cc3)ncc2Cl)s1 | inactive: -2.21% |  |
| N#Cc1c(C(F)(F)F)cc(-c2ccc(Cl)cc2)[nH]c1=O | inactive: -1.6% |  |
| COc1ccc(S(=O)(=O)n2cnc3ccccc32)c(C)c1 | inactive: 0.203% |  |
| N/C(=N\OC(=O)Nc1ccccc1)c1cccc(C(F)(F)F)c1 | inactive: -2.16% |  |
| COc1ccc(NS(=O)(=O)c2cc(-c3cnc(C4CC4)o3)ccc2C)cc1 | inactive: -3.75% |  |
| O=C1NC(=S)N(C(=O)c2ccc(F)cc2)/C1=C/c1ccccc1 | inactive: -0.482% |  |
| COc1cc2sc3ccc(-c4ccc(CN5CCOCC5)cc4)cc3c(=O)c2cc1OC | inactive: -5.62% |  |
| COc1ccc(C(C(=O)NC(C)(C)C)N(CCc2ccccc2)C(=O)CCC(=O)Nc2cc(C)on2)cc1 (centres undefined) | inactive: -0.384% |  |
| COc1cc(/C=N/Nc2ccc(C(=O)O)cc2)ccc1O | inactive: -2.75% |  |
| O=C(CSc1nnc(-c2ccncc2)n1Cc1ccco1)Nc1nc(-c2ccccc2)cs1 | inactive: -5.06% |  |
| Cc1ccccc1NC(=O)CCc1c(C)nn(-c2ccc(N3CCOCC3)nn2)c1C | inactive: 2.96% |  |

| Structure (SMILES) | activity change, negative = inhibition | Potency |
| --- | --- | --- |
| CC(C)Oc1ccc(C(=O)Nc2ccc(Cl)c(S(=O)(=O)Nc3ccc(Cl)cc3)c2)cc1 | inactive: -1.11% |  |
| O=C(Nc1nc(-c2ccc(F)cc2)cs1)C1CCN(C(=O)c2ccc(F)cc2)CC1 | inactive: -5.39% |  |
| O=[N+]([O-])c1cc(S(=O)(=O)C(F)(F)F)ccc1Sc1nc2ccccc2s1 | inactive: 0.782% |  |
| O=C(Nc1ccncc1)c1cccc(S(=O)(=O)N2CCc3ccccc32)c1 | inactive: -0.492% |  |
| Nc1nc(SCC(=O)Nc2ccc([N+](=O)[O-])cc2)[nH]c(=O)c1NC(=O)c1ccc(Br)cc1 | inactive: 2.47% |  |
| Cc1cccc(OC2CCN(Cc3nc(CC4CC4)no3)CC2)c1 | inactive: 1.84% |  |
| Cc1ccc(CN2C(=O)c3ccccc3Sc3ccc(C(=O)NCCCN4CCOCC4)cc32)cc1 | inactive: -1.01% |  |
| O=C(CN1C(=O)NC2(CCCc3ccccc32)C1=O)N1CCN(c2cccc(C(F)(F)F)c2)CC1 (centres undefined) | inactive: -0.905% |  |
| CCCCn1c(/N=C/c2ccccc2NS(=O)(=O)c2ccc(C)cc2)nc2ccccc21 | inactive: -0.666% |  |
| Cc1ccc(S(=O)(=O)N(Cc2ccccc2)c2ccccc2C(=O)N2CCCCC2)cc1 | inactive: -4.43% |  |
| O=C(Nn1cnnc1)C(c1ccccc1)c1ccccc1 | inactive: 0.913% |  |
| O=C(CSc1nc(-c2ccc(Cl)cc2)cs1)Nc1cccc([N+](=O)[O-])c1 | inactive: -2.02% |  |
| CC1Cc2ccccc2N1C(=O)COC(=O)/C=C/c1cccc(F)c1 (centres undefined) | inactive: -1.41% |  |
| COc1cccc(CNC(=O)c2nnn(CC(=O)Nc3cc(Cl)ccc3C)c2N)c1 | inactive: -1.09% |  |
| N#C/C(=C\c1ccc(Oc2ccc(C(F)(F)F)cc2[N+](=O)[O-])cc1)c1nc2ccccc2[nH]1 | inactive: -4.27% |  |
| O=C(Nc1c(F)cc(F)cc1Br)c1cc(-c2ccc(O)cc2)on1 | inactive: -2.05% |  |
| N=c1oc2ccccc2cc1C(=O)NC1CCCCCC1 | inactive: -0.828% |  |
| O=C(NCCN1CCOCC1)c1c(Cl)cccc1Cl | inactive: 2.3% |  |
| COc1ccc(CN2CCCN(C)CC2)c(OC)c1C | inactive: 1.58% |  |
| Cc1nn(CCCC(=O)Nc2cc(Oc3ccccc3)cc([N+](=O)[O-])c2)c(C)c1[N+](=O)[O-] | inactive: -1.58% |  |
| Cc1cc(C)n(C(=O)/C(C#N)=N/Nc2cc(Cl)cc(Cl)c2)n1 | inactive: -1.47% |  |
| Cc1ccc(-c2ccc(/C=N/N=C3/NC(=O)C(CC(=O)O)S3)o2)c([N+](=O)[O-])c1 (centres undefined) | inactive: 1.91% |  |

| Structure (SMILES) | activity change, negative = inhibition | Potency |
| --- | --- | --- |
| O=C1C=CC(=O)N1CCCCCCN1C(=O)C=CC1=O |  | active: 33.8 µM |
| CCn1nc([N+](=O)[O-])c(C(C#N)c2nc3cc(C(F)(F)F)ccc3s2)c(Cl)c1=O (centres undefined) | inactive: -0.764% |  |
| CCCn1nnc(NC(=O)C(C)Oc2ccc(Cl)cc2Cl)n1 (centres undefined) | inactive: 1.8% |  |
| Cc1ccc(SC(CC(=O)c2ccc(C(C)(C)C)cc2)C(=O)O)cc1 (centres undefined) | inactive: -0.365% |  |
| O=c1nc(/C=C/c2ccccc2C(F)(F)F)cc(C(F)(F)F)[nH]1 | inactive: 2.32% |  |
| C/C(=N\NC(=O)c1cccc(Cl)c1)C1C(=O)c2ccccc2C1=O | inactive: -1.37% |  |
| Brc1ccc(-c2nnc(-c3cccc(Br)c3)o2)cc1 | inactive: 2.12% |  |
| Cc1csc(NC(=O)c2cc3c(s2)CCCC3)n1 | inactive: -3.61% |  |
| CN(c1ccc(C(=O)NCCSCc2ccccc2)cc1)S(=O)(=O)c1ccccc1 | inactive: 1.01% |  |
| COc1ccccc1NS(=O)(=O)c1cc(NC(=O)c2ccc3c(c2)OCCO3)ccc1C | inactive: -4.31% |  |
| CCn1c(=NC(=O)CSC(C)=O)sc2ccccc21 | inactive: -0.266% |  |
| CCOc1ccccc1/C=C/c1onc(C)c1S(=O)(=O)N1CCC(C(=O)N2CCCCCC2)CC1 | inactive: -2.69% |  |
| N=c1oc2cc(O)ccc2cc1C(=O)Nc1ccc(Br)cc1 | inactive: -3.72% |  |
| COCC(C)n1c(COc2ccccc2F)nnc1SCc1c(C)noc1C (centres undefined) | inactive: 0.548% |  |
| Cc1cc(C#N)c(SCC(N)=O)nc1-c1ccc(F)cc1 | inactive: -0.969% |  |
| CC(C)(C)C(=O)NC(=S)NNC(=O)c1ccc(-c2ccccc2)cc1 | inactive: 0.136% |  |
| N#Cc1cccc(NC(=O)COC(=O)c2cc(S(=O)(=O)Nc3ccccc3Cl)ccc2O)c1 | inactive: -0.298% |  |
| CC1=NN(C(N)=S)C(=O)C1N=Nc1c(Br)cc(Br)cc1Br (centres undefined) | inactive: 1.89% |  |
| Cc1cccc(NC(=O)C2CCN(S(=O)(=O)c3ccc4c(c3)NC(=O)CO4)CC2)c1 | inactive: -0.591% |  |
| O=C(Nc1cccc2ccccc12)c1ccccc1 | inactive: -0.733% |  |
